Hit rate of the full screen: of about 310,000 compounds, about 14,000 (4.5%) showed an effect of 50% or more. The effect is printed as a negative number. The list shows a part of the results.
These compounds were tested against human ether-à-go-go-related gene (hERG) potassium channel (human, UniProt Q12809) (assay: primary screen, population patch clamp on CHO cells stably expressing hERG).
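Also: peak tail current of the secondary pulse compared with the same well before compound.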

human ether-à-go-go-related gene (hERG) potassium channel, sequence (Q12809 whole entry, looked up): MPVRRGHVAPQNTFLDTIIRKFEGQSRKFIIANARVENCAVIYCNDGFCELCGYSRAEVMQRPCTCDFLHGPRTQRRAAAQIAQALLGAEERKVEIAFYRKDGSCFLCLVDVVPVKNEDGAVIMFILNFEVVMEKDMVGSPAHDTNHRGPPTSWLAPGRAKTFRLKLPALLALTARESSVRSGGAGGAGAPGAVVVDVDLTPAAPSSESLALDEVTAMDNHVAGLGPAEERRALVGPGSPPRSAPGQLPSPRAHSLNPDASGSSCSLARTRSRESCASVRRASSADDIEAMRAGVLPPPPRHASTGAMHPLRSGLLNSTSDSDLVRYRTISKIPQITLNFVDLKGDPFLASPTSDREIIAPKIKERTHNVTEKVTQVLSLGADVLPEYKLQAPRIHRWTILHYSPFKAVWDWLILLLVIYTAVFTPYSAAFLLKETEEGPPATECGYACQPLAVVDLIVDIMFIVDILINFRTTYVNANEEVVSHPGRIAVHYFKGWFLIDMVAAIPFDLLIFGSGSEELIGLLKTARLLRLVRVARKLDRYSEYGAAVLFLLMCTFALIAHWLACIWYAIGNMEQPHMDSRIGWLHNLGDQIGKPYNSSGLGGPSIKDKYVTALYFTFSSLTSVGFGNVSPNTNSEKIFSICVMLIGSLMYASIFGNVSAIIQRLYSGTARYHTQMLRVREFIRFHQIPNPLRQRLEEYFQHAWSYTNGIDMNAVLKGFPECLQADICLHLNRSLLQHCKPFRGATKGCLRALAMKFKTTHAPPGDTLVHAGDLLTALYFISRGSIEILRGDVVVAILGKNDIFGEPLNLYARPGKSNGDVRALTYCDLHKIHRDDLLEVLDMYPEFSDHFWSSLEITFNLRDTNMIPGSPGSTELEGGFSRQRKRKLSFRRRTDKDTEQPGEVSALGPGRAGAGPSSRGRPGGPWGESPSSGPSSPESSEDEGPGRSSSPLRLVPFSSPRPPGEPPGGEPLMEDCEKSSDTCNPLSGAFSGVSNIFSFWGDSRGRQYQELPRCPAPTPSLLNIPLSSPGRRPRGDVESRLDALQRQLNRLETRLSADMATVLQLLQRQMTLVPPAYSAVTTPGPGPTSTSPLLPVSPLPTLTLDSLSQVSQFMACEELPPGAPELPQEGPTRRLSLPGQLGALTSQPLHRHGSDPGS

SMILES	hERG current change (%, negative = inhibition) at 10uM [%]
COc1ccc(Br)c(C(=O)NC2CCCC2)c1	15
COc1ccc(-c2c(-c3cccc(C)c3)oc3ccc(-c4ccc5c(c4)OCO5)cc23)cn1	11.3
O=C(CCN1C(=O)c2ccccc2S1(=O)=O)NCc1ccco1	2.94
N#Cc1cccc(NC(=O)Cn2cnc(S(=O)(=O)N3CCOCC3)c2)c1	6.55
CCCCN1Cc2cc(C(=O)c3cc(OC)ccc3O)cnc2NC1=O	-2.3
CC(=O)Nc1ccc(-c2sc(Nc3ccccc3)n[n+]2C)cc1.[Cl-]	27.5
Cc1ccc(C2(C)NC(=O)N(CC(=O)Nc3ccc4c(c3)CCC4)C2=O)cc1 (centres unmarked)	0.491
O=C(c1cccs1)N1CCN=C1SCc1ccccc1F	8.48
O=C(CCN1CCCC1)c1cccs1	13.5
COC(=O)c1c(SCC(=O)NC2CCCCC2)[nH]c2ccccc2c1=O	-0.717
CC1=C(C(=O)OCCOC(C)C)C(c2cccnc2)C2=C(CCCC2=O)N1 (centres unmarked)	11.4
COC(=O)N/N=C\c1cccc(OC(=O)c2cccs2)c1	3.14
COCCN(C(=O)CCC(=O)Nc1cc(C)on1)C(C(=O)NC(C)(C)C)c1ccc(OC)cc1 (centres unmarked)	21.4
Cc1cc(NC(=O)CSc2nnc(-c3ccoc3C)o2)no1	10.9
O=C(COc1ccc(Cl)cc1Cl)Nc1c(-c2cccs2)nc2ccccn12	17.4
COc1ccccc1C(=O)NCC(=O)NCCCN1CCOCC1	5.21
CNC(=O)COC(=O)c1ccc(NS(=O)(=O)c2ccc3c(c2)OCCO3)cc1	1.75
O=C1CCCc2c1[nH]c1ccc(CN3CCCCC3)cc21	-9.21
O=C(c1ccco1)N1CCN(c2ncnc3c2oc2ccccc23)CC1	-55.4
COc1ccc(C(CNC(=O)/C=C/c2c(Cl)nc3ccccn23)N(C)C)cc1 (centres unmarked)	4.23
COc1ccc(N(C(=O)CCl)C(C(=O)NC2CCCCC2)c2cccnc2)cc1 (centres unmarked)	0.893
O=c1[nH]c(Cc2ccccc2)nc2c1oc1ccccc12	15.7
CCN(CC)c1ccc(/C=N/N=C(N)N)c(O)c1	-14

SMILES	hERG current change (%, negative = inhibition) at 10uM [%]
N#CC1=C(N)Oc2c(c(=O)oc3ccccc23)C1c1cccnc1 (centres unmarked)	5.62
O=c1c2ccc(Cl)cc2[nH]c(=S)n1CCCN1CCOCC1	-22.6
COCCNC(=O)c1ccc2c(=O)n(Cc3ccco3)c(SCC(=O)Nc3ccc(OC)cc3OC)nc2c1	1.92
O=C(O)C1CCN(S(=O)(=O)c2ccc(N3CCC(O)CC3)c([N+](=O)[O-])c2)CC1	22
O=C(NCCN1CCOCC1)c1cc(-c2ccccc2)on1	0.876
O=C(NCc1ccco1)C1CCCN(S(=O)(=O)c2ccc(-n3cnnn3)cc2)C1 (centres unmarked)	-61.8
CC1=NN(c2ccccc2)C(=O)/C1=C\c1ccc(Br)s1	12.1
CCCCN(CCCC)CCNC(=O)c1ccc2nc(-c3ccccc3NC(C)=O)c(=O)[nH]c2c1	24.4
COc1cc2c(c(OC)c1OC)C(=O)CC2	15.6
Cc1ccc(C2C3CSCC=C3C(C#N)=C(N)C2(C#N)C#N)cc1 (centres unmarked)	-26.7
Cc1ccc(C23CC4CC(CC(C(=O)N5CCOCC5)(C4)C2)C3)cc1	-20.3
O=C(c1nc2nc(-c3ccccc3)cc(C(F)(F)F)n2n1)N1CCOCC1	16.4
COc1ccccc1NC(=O)CSCc1cc(=O)n2c(C)csc2n1	13.5
O=C(c1ccccc1)c1nc2c(n1O)CCCCC2	21.9
CCCCCOc1ccc(/C(C)=N/NC2=NCCN2)cc1	-39.8
CCCN1C(=O)c2ccc(C(=O)Nc3cc(C)on3)cc2C1=O	5.87
O=C(NCc1cccnc1)c1ccc(COc2ccc3c(c2)CCC3)o1	-31.3
Oc1cccc(C2c3[nH]c4ccccc4c3CCN2Cc2ccoc2)c1 (centres unmarked)	-29.6
O=c1oc2cc(O)ccc2c2c1CCCC2	-21.2
Cc1cccc(C)c1NC(=O)CSc1nnc(NC(=O)CN2CCOCC2)s1	8.19
FC(F)(F)C1=CC(c2ccc(Cl)cc2)=NCCN1	-16.1
COC(=O)c1c(C(=O)OC)c(-c2ccccc2)n2c1CS(=O)(=O)C2	8.64
O=c1[nH]c2ccc(S(=O)(=O)Nc3ccc(-c4nnc5n4CCCCC5)cc3)cc2o1	13.4

SMILES	hERG current change (%, negative = inhibition) at 10uM [%]
CCc1ccc(N2CCN(CCNC(=O)Nc3ccc(OC)cc3)CC2)cc1	-29.9
Cc1cccc(NC(=O)c2cc(-c3cc(C)ccc3O)n[nH]2)c1	8.79
C=CCOC(=O)C1=C[C@H](C2CC2)[C@@H](CCCO)[C@H](OCC)O1	10.3
COc1ccc(N=C2S/C(=C\c3ccco3)C(=O)N2CC(C)C)cc1	18.4
COc1ccc(OCC(=O)NCc2ccc(Cl)cc2)cc1	1.55
Cc1oc2c(c(C)cc3oc(=O)c(CC(=O)N[C@@H](CC(C)C)C(=O)O)c(C)c32)c1C	15.8
CC(C)CC(COCc1cccc(Cl)c1)N1CCN(C(=O)c2cccc(C(F)(F)F)c2)CCC1=O (centres unmarked)	-27.4
CCOC(=O)N1CCN(C(=O)Cn2nc(-c3ccc(Cl)cc3)ccc2=O)CC1	-18.8
CN(C)Cc1c(C(=O)N/N=C/c2cccc(OCc3ccccc3)c2)nnn1-c1nonc1N	10.9
CCC(CC)C(=O)Nc1cc(=O)n(C)c(=O)n1C	7.64
CN=c1c([N+](=O)[O-])nn(-c2ccc3c(c2)OCCO3)n1O	0.135
NC(=O)CC[C@H](NC(=O)[C@H](Cc1ccccc1)n1c(=O)[nH]c2ccccc2c1=O)C(=O)N1CCC[C@H]1C(=O)O	2.23
COc1ccccc1C(=O)NC1CC2CCC(C1)N2Cc1ccccc1 (centres unmarked)	-20.4
Cc1ccc(NC(=O)Nc2ccccc2)c(Br)c1	-1.55
O=C(O)CCSc1nnc(-c2ccccc2)n1-c1ccccc1	-3.32
CN(Cc1ccccc1)C(=O)COC(=O)COc1ccc(C#N)cc1	-18.1
CCS(=O)(=O)N1CCC(C(=O)NC2CCCCCCC2)CC1	-3.45
CCCOC(=O)c1ccc(NC(=O)C(=O)NCCN(CC)CC)cc1	-52.1
CCCCN1C(=O)N(C)C2C1N(C)C(=O)N2CCCC (centres unmarked)	-5.25
Cc1cc(C)c2nc(N(CCCN(C)C)C(=O)c3ccc4c(c3)OCCO4)sc2c1.Cl	-51.2
Cc1ccc(N/C=C/C(=O)c2cccs2)cc1C	13.6
Cc1[nH]c2ccccc2c1C1=CN2CCS(=O)(=O)N=C2S1	3.62
Cc1ccc(Cn2c(SCC(C)C)nc3c2c(=O)n(C)c(=O)n3C)cc1	4.03

SMILES	hERG current change (%, negative = inhibition) at 10uM [%]
O=C(O)c1c(NC(=O)N2CCCC2)sc2c1CCCC2	26.8
O=C(Cn1ccccc1=O)NCc1ccc(F)cc1	8.94
Cc1ccc(C2(C(F)(F)F)NC(=O)N3C(=C2C#N)Nc2ccccc23)cc1 (centres unmarked)	7.65
COC(=O)CN1C(=O)C(O)(CC(=O)c2ccc(C)cc2)c2ccccc21 (centres unmarked)	14.7
CCNc1ccc(N=Nc2c(C)n(C)n(-c3ccccc3)c2=O)cc1	-23.1
COc1ccc(CCNc2cc(C)nc3c(-c4ccccc4OC)cnn23)cc1OC	14.1
Cc1ccc(NC(=O)CSc2nnc(CNC(=O)c3ccco3)n2C)c(C)c1	3.91
CCCCn1c(=O)c2ccccc2c2ccccc2c1=O	1.78
CCC(C)c1ccc(O)c(NC(=O)c2ncn[nH]2)c1 (centres unmarked)	14.9
CC(=O)c1ccc(S(=O)(=O)NCCC(=O)OCC(=O)N(Cc2ccccc2)C(C)(C)C)cc1	-24.5
CC(=O)c1sc(NC(=O)c2ccc(F)c(S(=O)(=O)N3CCOCC3)c2)nc1C	12.4
CC(C)(C)c1ccc(C(=O)c2c[nH]c(C(=O)NCc3ccco3)c2)cc1	2.5
Cc1ccc(NC(=O)Cc2nnc(SCC(=O)Nc3ccc(N4CCOCC4)cc3)n2C)cc1	8.44
CC(C)CC1NC(=O)N(Cc2cc(=O)n3ccsc3n2)C1=O (centres unmarked)	-49
CCN1C(=O)C(=O)N(CC(=O)N2CCC(C)Sc3ccccc32)C1=O (centres unmarked)	-12
COc1ccc(CNC(=O)C2CCCN2S(=O)(=O)c2ccccc2)cc1 (centres unmarked)	33.9
O=C(Nc1nnc(S(=O)(=O)Nc2ccccc2)s1)C1CCCCC1	11.6
COc1cccc(CN2C(=O)NC3(CCCCCC3)C2=O)c1	5.21
Cc1ccc(NC(=O)N2CCC(C(=O)NCC(C)C)CC2)cc1	9.74
Fc1ccc(-n2nnnc2-c2cnc(-c3cccs3)nc2C(F)(F)F)cc1	4.01

Source: PMC4336329 (PLoS ONE, 2015)
